Assay [1] has as its target Flag-tagged CB1R, full length (CB1R-FL, 1-473 amino acids) (mouse) (UniProt P47746). The assay is described as follows: co-IP; HL-1 cells co-transfected with the Flag-tagged Cb1r plasmid and one of the Myc-Nlrp3, His-Gsdmd, HA-Casp1 or GST-Asc plasmids; precipitation with anti-Flag antibody, and the reverse.
Assay [2] has as its target cannabinoid receptor 1 (CB1R), endogenous in mouse HL-1 myocytes (mouse (endogenous in HL-1)) (UniProt P47746). The experiment in a line: co-IP; endogenous proteins in mouse HL-1 cells; precipitation with a CB1R antibody; compared Lv-vector with Lv-CB1R cells and WT with Cb1r-/- cells.
Assay [3] addresses CB1R-Mutant 4 (CB1R-M4, Δ1-209), truncation of Flag-tagged CB1R (mouse) (UniProt P47746). The experiment in a line: co-IP; HEK293T cells transfected with CB1R-M3 or CB1R-M4 together with each of the recombinant pyroptosis plasmids.
Assay [4] has as its target CB1R-Mutant 3 (CB1R-M3, Δ1-176), truncation of Flag-tagged CB1R (mouse) (UniProt P47746). The description is as above.

The chains behind the UniProt entries cited, without tags or fusion partners.
UniProt Q8R4B8: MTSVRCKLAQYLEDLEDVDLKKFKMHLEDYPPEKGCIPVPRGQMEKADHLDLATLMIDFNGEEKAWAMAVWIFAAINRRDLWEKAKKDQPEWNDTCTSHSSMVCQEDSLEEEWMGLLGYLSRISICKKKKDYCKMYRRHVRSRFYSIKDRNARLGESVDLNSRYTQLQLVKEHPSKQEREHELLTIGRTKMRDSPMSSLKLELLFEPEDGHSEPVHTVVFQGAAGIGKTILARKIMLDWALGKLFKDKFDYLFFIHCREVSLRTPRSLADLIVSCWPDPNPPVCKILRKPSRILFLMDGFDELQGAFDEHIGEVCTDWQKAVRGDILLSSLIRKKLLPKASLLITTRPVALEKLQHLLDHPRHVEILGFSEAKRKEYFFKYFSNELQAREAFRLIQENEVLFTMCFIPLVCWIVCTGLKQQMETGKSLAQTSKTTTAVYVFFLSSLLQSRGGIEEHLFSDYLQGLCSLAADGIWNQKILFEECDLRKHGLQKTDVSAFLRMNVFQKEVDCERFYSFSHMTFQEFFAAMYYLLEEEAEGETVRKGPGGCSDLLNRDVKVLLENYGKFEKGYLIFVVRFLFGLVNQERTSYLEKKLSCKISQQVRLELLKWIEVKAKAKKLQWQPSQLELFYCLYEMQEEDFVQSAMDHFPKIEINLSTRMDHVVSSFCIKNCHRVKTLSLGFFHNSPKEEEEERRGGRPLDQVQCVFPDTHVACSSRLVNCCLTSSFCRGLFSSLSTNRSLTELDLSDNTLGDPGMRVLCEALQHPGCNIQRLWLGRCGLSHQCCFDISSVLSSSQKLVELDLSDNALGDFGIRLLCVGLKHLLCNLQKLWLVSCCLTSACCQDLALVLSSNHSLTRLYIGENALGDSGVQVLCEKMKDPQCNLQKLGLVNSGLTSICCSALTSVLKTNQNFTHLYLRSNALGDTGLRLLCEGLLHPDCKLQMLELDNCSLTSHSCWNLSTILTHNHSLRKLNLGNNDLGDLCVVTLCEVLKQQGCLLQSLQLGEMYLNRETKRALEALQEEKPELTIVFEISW

Results are given in words; binding and its absence hold for the method and conditions named. In cells and extracts the contact can be indirect. Some results given as binding are weak or reduced against the parent protein; the word gives no strength. For some of these results: Where a sequence is shown, tags or fusion partners need not be part of it.

As to “Myc-tagged NLRP3 (expressed in HL-1 cells) (from UniProt Q8R4B8 1-1033)”, in assay [1], the binding entry is “binds”.

As to “NLRP3, endogenous in mouse HL-1 myocytes (from UniProt Q8R4B8 1-1033)”, in assay [2], the binding result is “binds”.

In the case of “Myc-tagged NLRP3 (expressed in HEK293T cells) (from UniProt Q8R4B8 1-1033)”, the binding result in assay [3] is on record as “no binding”; in assay [4], “binds”.

B1: HA-tagged Casp1 (expressed in HEK293T cells) (enzyme, UniProt P29452 1-402)
chain: MADKILRAKRKQFINSVSIGTINGLLDELLEKRVLNQEEMDKIKLANITAMDKARDLCDHVSKKGPQASQIFITYICNEDCYLAGILELQSAPSAETFVATEDSKGGHPSSSETKEEQNKEDGTFPGLTGTLKFCPLEKAQKLWKENPSEIYPIMNTTTRTRLALIICNTEFQHLSPRVGAQVDLREMKLLLEDLGYTVKVKENLTALEMVKEVKEFAACPEHKTSDSTFLVFMSHGIQEGICGTTYSNEVSDILKVDTIFQMMNTLKCPSLKDKPKVIIIQACRGEKQGVVLLKDSVRDSEEDFLTDAIFEDDGIKKAHIEKDFIAFCSSTPDNVSWRHPVRGSLFIESLIKHMKEYAWSCDLEDIFRKVRFSFEQPEFRLQMPTADRVTLTKRFYLFPGH
On to B1, for which the figures for the binding result in assay [3] and in assay [4] were “no binding” and “binds”, respectively.

B2: HA-tagged Casp1 (expressed in HL-1 cells) (enzyme, UniProt P29452 1-402)
chain: MADKILRAKRKQFINSVSIGTINGLLDELLEKRVLNQEEMDKIKLANITAMDKARDLCDHVSKKGPQASQIFITYICNEDCYLAGILELQSAPSAETFVATEDSKGGHPSSSETKEEQNKEDGTFPGLTGTLKFCPLEKAQKLWKENPSEIYPIMNTTTRTRLALIICNTEFQHLSPRVGAQVDLREMKLLLEDLGYTVKVKENLTALEMVKEVKEFAACPEHKTSDSTFLVFMSHGIQEGICGTTYSNEVSDILKVDTIFQMMNTLKCPSLKDKPKVIIIQACRGEKQGVVLLKDSVRDSEEDFLTDAIFEDDGIKKAHIEKDFIAFCSSTPDNVSWRHPVRGSLFIESLIKHMKEYAWSCDLEDIFRKVRFSFEQPEFRLQMPTADRVTLTKRFYLFPGH
Turning to B2, in assay [1], the binding result is “binds”.

B3: Casp1, endogenous in mouse HL-1 myocytes (enzyme, UniProt P29452 1-402)
chain: MADKILRAKRKQFINSVSIGTINGLLDELLEKRVLNQEEMDKIKLANITAMDKARDLCDHVSKKGPQASQIFITYICNEDCYLAGILELQSAPSAETFVATEDSKGGHPSSSETKEEQNKEDGTFPGLTGTLKFCPLEKAQKLWKENPSEIYPIMNTTTRTRLALIICNTEFQHLSPRVGAQVDLREMKLLLEDLGYTVKVKENLTALEMVKEVKEFAACPEHKTSDSTFLVFMSHGIQEGICGTTYSNEVSDILKVDTIFQMMNTLKCPSLKDKPKVIIIQACRGEKQGVVLLKDSVRDSEEDFLTDAIFEDDGIKKAHIEKDFIAFCSSTPDNVSWRHPVRGSLFIESLIKHMKEYAWSCDLEDIFRKVRFSFEQPEFRLQMPTADRVTLTKRFYLFPGH
Take B3: the binding entry in assay [2] is “binds”.

B4: NLRP1b, endogenous in mouse HL-1 myocytes (protein, UniProt Q2LKW6 1-1233)
chain: MEESPPKQKSNTKVAQHEGQQDLNTTRHMNVELKHRPKLERHLKLGMIPVVYMKQGEEILYPAQSLREENLIQNFTSLLLLQKLCPKDPENMIRKSWASCVPEEGGHMINIQDLFGPNIGTQKEPQLVIIEGAAGIGKSTLARLVKRAWKEGQLYRDHFQHVFFFSCRELAQCKKLSLAELIAQGQEVPTAPINQILSHPEKLLFILDGIDEPAWVLADQNPELCLHWSQRQPVHTLLGSLLGKSILPEAFFLLTTRTTALQKFIPSLPMPCQVEVLGFSGIERENYFYKYFANQRHAITAFMMVESNPVLLTLCEVPWVCWLVCTCLKKQMEQGRVLSLKSQTTTALCLKYLSLTIPDKHRRTQVKALCSLAAEGIWKRRTLFSESDLCKQGLDEDAVATFLKTGVLQKQASSLSYSFAHLCLQEFFAAISCILEDSEERHGNMEMDRIVETLVERYGRQNLFEAPTVRFLFGLLGKEGVKGMEKLFSCSLHGKTNLKLLWHILVKSQPHQPPCLGLLHCLYENQDMELLTHVMHDLQGTIVPGPNDTAHTVLQTNVKHLVVQTDMELMVATFCIQFYCHVRTLQLNMEKQQGYALISPRMVLYRWTPITNASWEILFYNLKFTRNLEGLDLSGNSLRYSVVQSLCNTLRYPGCQLKTLWLVKCGLTSRYCSLLASVLSAHSSLTELYLQLNDLGDDGVRMLCEGLRNPVCNLSILWLDLSSLSAQVITELRTLEEKNPKLYIRSIWMPHMMVPTENMDEEAILTTLKQQRQESGDKPMEILGTEEDFWGPTGPVATELVDRVRNLYRMPQMMVPTENMDEEDILTSFKQQRQQSGANPMEILGTEEDFWGPIGPVATEVVYRERNLYRVQLPMAGSYHCPSTRLHFVVTRAVTIEIEFCAWSQFLDKTPLQQSHMVVGPLFDIKAEQGAVTAVYLPHFVSLKDTKASTFDFKVAHFQEHGMVLETPDRVKPGYTVLKNPSFSPMGVVLRIIPAARHFIPITSITLIYYRVNQEEVTLHLYLVPNDCTIQKAIDDEEMKFQFVRINKPPPVDNLFIGSRYIVSGSENLEITPKELELCYRSSKEFQLFSEIYVGNMGSEIKLQIKNKKHMKLIWEALLKPGDLRPALPRIAQALKDAPSLLHFMDQHREQLVARVTSVDPLLDKLHGLVLNEESYEAVRAENTNQDKMRKLFNLSRSWSRACKDLFYQALKETHPHLVMDLLEKSGGVSLGS
Consider B4, for which the binding result in assay [2] is “no binding”.

B5: His-tagged GSDMD (expressed in HEK293T cells) (protein, UniProt Q9D8T2 1-487)
chain: MPSAFEKVVKNVIKEVSGSRGDLIPVDSLRNSTSFRPYCLLNRKFSSSRFWKPRYSCVNLSIKDILEPSAPEPEPECFGSFKVSDVVDGNIQGRVMLSGMGEGKISGGAAVSDSSSASMNVCILRVTQKTWETMQHERHLQQPENKILQQLRSRGDDLFVVTEVLQTKEEVQITEVHSQEGSGQFTLPGALCLKGEGKGHQSRKKMVTIPAGSILAFRVAQLLIGSKWDILLVSDEKQRTFEPSSGDRKAVGQRHHGLNVLAALCSIGKQLSLLSDGIDEEELIEAADFQGLYAEVKACSSELESLEMELRQQILVNIGKILQDQPSMEALEASLGQGLCSGGQVEPLDGPAGCILECLVLDSGELVPELAAPIFYLLGALAVLSETQQQLLAKALETTVLSKQLELVKHVLEQSTPWQEQSSVSLPTVLLGDCWDEKNPTWVLLEECGLRLQVESPQVHWEPTSLIPTSALYASLFLLSSLGQKPC
Consider B5, for which the binding result in assay [3] is reported as “no binding”; in assay [4], “binds”.

B6: His-tagged GSDMD (expressed in HL-1 cells) (protein, UniProt Q9D8T2 1-487)
chain: MPSAFEKVVKNVIKEVSGSRGDLIPVDSLRNSTSFRPYCLLNRKFSSSRFWKPRYSCVNLSIKDILEPSAPEPEPECFGSFKVSDVVDGNIQGRVMLSGMGEGKISGGAAVSDSSSASMNVCILRVTQKTWETMQHERHLQQPENKILQQLRSRGDDLFVVTEVLQTKEEVQITEVHSQEGSGQFTLPGALCLKGEGKGHQSRKKMVTIPAGSILAFRVAQLLIGSKWDILLVSDEKQRTFEPSSGDRKAVGQRHHGLNVLAALCSIGKQLSLLSDGIDEEELIEAADFQGLYAEVKACSSELESLEMELRQQILVNIGKILQDQPSMEALEASLGQGLCSGGQVEPLDGPAGCILECLVLDSGELVPELAAPIFYLLGALAVLSETQQQLLAKALETTVLSKQLELVKHVLEQSTPWQEQSSVSLPTVLLGDCWDEKNPTWVLLEECGLRLQVESPQVHWEPTSLIPTSALYASLFLLSSLGQKPC
Take B6: the binding result in assay [1] was “binds”.

B7: GSDMD, endogenous in mouse HL-1 myocytes (protein, UniProt Q9D8T2 1-487)
chain: MPSAFEKVVKNVIKEVSGSRGDLIPVDSLRNSTSFRPYCLLNRKFSSSRFWKPRYSCVNLSIKDILEPSAPEPEPECFGSFKVSDVVDGNIQGRVMLSGMGEGKISGGAAVSDSSSASMNVCILRVTQKTWETMQHERHLQQPENKILQQLRSRGDDLFVVTEVLQTKEEVQITEVHSQEGSGQFTLPGALCLKGEGKGHQSRKKMVTIPAGSILAFRVAQLLIGSKWDILLVSDEKQRTFEPSSGDRKAVGQRHHGLNVLAALCSIGKQLSLLSDGIDEEELIEAADFQGLYAEVKACSSELESLEMELRQQILVNIGKILQDQPSMEALEASLGQGLCSGGQVEPLDGPAGCILECLVLDSGELVPELAAPIFYLLGALAVLSETQQQLLAKALETTVLSKQLELVKHVLEQSTPWQEQSSVSLPTVLLGDCWDEKNPTWVLLEECGLRLQVESPQVHWEPTSLIPTSALYASLFLLSSLGQKPC
As to B7, the binding entry in assay [2] was “binds”.

The record behind these values is publication PMC9225989 (Signal Transduction and Targeted Therapy, 2022).
